Data reported in PubChem BioAssay AID463173 (ICCB-Longwood Screening Facility, Harvard Medical School, 2010).
In all, about 52,000 compounds went through this assay and about 1,700 (3.3%) were called active. No stated cut-off is given here; in the data, active means survival mostly below about 52% (no sharp cut-off); inactive means mostly above about 56%. This is one part of the list.

The compounds below were run on Wild type (assay: S. aureus survival, RN4220 and DeltatarO strains – OD600, teichoic acid synthesis inhibitors, primary screen (AID 463173)). Settings: S. aureus RN4220 wild type/DeltatarO growth, OD600, 18 h, active compounds read low, screened at 18.75 µg/mL (by protocol).
Cc1ccnc(NS(=O)(=O)c2ccc(NC(=O)c3cc(=O)c4ccc(C)c(C)c4o3)cc2)n1 was tested, and the survival was inactive: 85%. In the case of CNCCCc1cc(C)ccc1O, the survival is reported as inactive: 105%. For Cc1ccc2nc(N3CCN(C(=O)C4COc5ccccc5O4)CC3)sc2c1 (stereo not given), the survival was inactive: 71%. In the case of COc1ccc(CNC(=O)c2cc3c(=O)n(Cc4cccs4)ccc3nc2C)cc1, the survival is reported as active: 10%. With COc1ccc(-c2nc3ccccc3o2)cc1NC(=O)c1ccc(N2CCC(C)CC2)c([N+](=O)[O-])c1 the survival was inactive: 71%. For CC(Sc1nnc(-c2ccc3c(c2)OCO3)o1)C(N)=O (stereo not given), the survival was inactive: 94%. With Cc1nn(Cc2ccccc2)c(C)c1NC(=O)c1cc(C(C)C)on1 the survival was inactive: 77%. In the case of CCOC(=O)c1sc(NC(=O)c2nc(SCC)ncc2Cl)c(C(=O)OCC)c1C, the survival is reported as inactive: 118%. For CN(C)CCNC(=O)Cc1ccc(NC(=O)N2CCCCc3ccccc32)cc1, the survival was inactive: 75%. CCOC(=O)c1cc(-c2ccc(C)cc2)n(CC(=O)Nc2cccc(C(C)=O)c2)c1C was tested, and the survival was inactive: 124%. With COc1ccc(Cl)cc1NC(=O)c1c(C(=O)Nc2cccc(C)c2C)sc2nc(C)cc(=O)n12 the survival was inactive: 89%. With Cc1ccc(C(=O)c2cn(Cc3ccc(F)cc3)c3nc(C)ccc3c2=O)cc1 the survival was inactive: 95%. For COc1ccc(OCc2nnc(SCC(=O)N3C(C)CCCC3C)o2)cc1 (stereo not given), the survival was inactive: 103%. COCCCn1c(=N)c(S(=O)(=O)c2ccccc2)cc2c(=O)n3cccc(C)c3nc21 was tested, and the survival was inactive: 75%. In the case of CC1(C)CC(=O)c2cc(C(=O)Nc3ccc(Br)cc3)c(=O)n(-c3ccc(Cl)cc3)c2C1, the survival is reported as inactive: 74%. COc1ccccc1OCC(O)CN1CCOCC1 (stereo not given) was tested, and the survival was inactive: 105%. In the case of Cc1oc(-c2ccccc2F)nc1Cn1c(SCc2ccccc2F)nc2ccncc21, the survival is reported as inactive: 73%. For CCn1cc2nc(SCc3cc(C)ccc3C)n(Cc3ccc(C)cc3)c(=O)c2n1, the survival was inactive: 66%. With Cc1ccccc1OCc1nc2c3cnn(-c4ccccc4Br)c3ncn2n1 the survival was inactive: 87%. In the case of COc1ccccc1N1CCN(C(=O)CCSCc2ccccc2F)CC1, the survival is reported as inactive: 76%. With COc1ccc(Nc2oc(/C=C/c3ccc(F)cc3)nc2C#N)cc1 the survival was inactive: 104%. In the case of Cc1ccc(C2c3cccn3CCN2S(=O)(=O)c2ccc([N+](=O)[O-])cc2)cc1 (stereo not given), the survival is reported as inactive: 95%. With COc1ccc(N2CC(NC(=O)c3cccs3)CC2=O)cc1OC (stereo not given) the survival was inactive: 72%. In the case of O=S(=O)(NCCc1csc(-c2ccc(F)cc2)n1)c1ccc(F)cc1F, the survival is reported as inactive: 112%. With COC(=O)c1cccc(NC(=O)COC(=O)c2ccco2)c1 the survival was inactive: 100%. For CCc1ccc(-c2[nH]c3c(c2-c2c(-n4cccc4)n(C)c(=O)[nH]c2=O)c(=O)[nH]c(=O)n3C)cc1, the survival was inactive: 93%. In the case of CC(=O)Nc1ccc(NS(=O)(=O)c2ccc3c(c2)CCCN3C(C)=O)cc1, the survival is reported as inactive: 68%. In the case of O=C(Nc1nnc(S(=O)(=O)N2CCCCC2)s1)c1ccc(Cl)cc1, the survival is reported as inactive: 48%. For COc1ccc(-n2ncc(C(=O)Nc3ccc(C)cc3Cl)c2C2CCN(C(=O)OC(C)(C)C)CC2)cc1, the survival was inactive: 51%. CCCCn1c(SCC(=O)Nc2ccccc2)nc2ccccc2c1=O was tested, and the survival was inactive: 99%. In the case of CCN(CC)C(=O)CSc1nnc(COc2ccc(Br)cc2)o1, the survival is reported as inactive: 102%. With O=C(NCC1CCCO1)c1cccc(C(=O)NCC2CCCO2)c1 (stereo not given) the survival was inactive: 101%. For CCN(CC)CCNC(=O)C1CCCN(c2nnc(C)c3c(C)n(-c4ccc(Cl)cc4)nc23)C1 (stereo not given), the survival was inactive: 126%. For CCOc1ccc(-c2cn3c(n2)sc2cc(C(=O)NCCC4=CCCCC4)ccc23)cc1, the survival was inactive: 103%. In the case of CCOc1ccc(NC(=O)CSc2nnc(CC)c(CC)n2)cc1, the survival is reported as inactive: 58%. COc1ccccc1CNC(=O)c1ccc(NC(=O)N2CC(C)Sc3ccccc32)cc1 (stereo not given) was tested, and the survival was inactive: 80%. With Cc1cc(C=C(C#N)C#N)c(C)n1-c1ccc(S(N)(=O)=O)cc1 the survival was inactive: 118%. Cc1cccc(C)c1NC(=O)C1CCCN(S(=O)(=O)c2c(C)noc2/C=C/N(C)C)C1 (stereo not given) was tested, and the survival was inactive: 71%. COc1ccc(S(=O)(=O)NCC(c2ccco2)S(=O)(=O)c2ccc(C)cc2)cc1C (stereo not given) was tested, and the survival was inactive: 101%. Cc1ccc(-c2nc3scc(CCNS(=O)(=O)c4ccc(C)c(C)c4)n3n2)cc1 was tested, and the survival was inactive: 55%. With Cc1ccc(-c2noc(-c3cccnc3NCc3ccc(Cl)cc3)n2)cc1 the survival was inactive: 88%. In the case of Cc1cccc(OCC(=O)Nc2ccc(C(=O)OCc3cc(=O)n4nc(C5CC5)sc4n3)cc2)c1, the survival is reported as active: -4%. COC(=O)c1ccc(NC(=O)CSc2ccc(-c3cccs3)nn2)cc1 was tested, and the survival was inactive: 89%. With CCOC(=O)c1cc(-c2ccc(C)cc2)n(CCC(=O)NCc2ccccc2)c1C the survival was inactive: 125%. With O=C(NCCc1nc2ccccc2n1CCOc1ccc(Cl)cc1)C1CCCCC1 the survival was inactive: 20%. With COc1ccc2cc(S(=O)(=O)c3ccccc3F)c(=O)oc2c1 the survival was inactive: 73%. With CCc1ccc(NC(=O)C(Cc2ccccc2)NS(=O)(=O)c2ccc3c(c2)CCN3C(C)=O)cc1 (stereo not given) the survival was inactive: 97%. With Cc1cc(C)c(NC(=O)c2cc(CN3CCOCC3)on2)c(C)c1 the survival was inactive: 67%. In the case of C=CC(=O)NCC1OCCc2ccccc21 (stereo not given), the survival is reported as inactive: 110%. With CCOc1ccc(Sc2cc(C(=O)NCCCOC)c3ccccc3n2)cc1 the survival was inactive: 92%. C#CCOc1ccc(C2C(C(=O)OC)=C(C)NC3=C2C(=O)c2ccccc23)cc1OCC (stereo not given) was tested, and the survival was inactive: 102%. For CN1CCN(C(=O)c2cnn(-c3cccc(F)c3)c2C2CCN(C(=O)OC(C)(C)C)CC2)CC1, the survival was inactive: 72%. With CCc1cccc2c(=O)c(C(=O)N3CCCCC3)c[nH]c12 the survival was inactive: 101%. N#Cc1ccccc1NC(=O)CC1Nc2ccccc2NC1=O (stereo not given) was tested, and the survival was inactive: 105%. With Cc1ccc(C)c(CSc2c(C(C)C)cnc3c2c(=O)n(C)c(=O)n3C)c1 the survival was inactive: 126%. In the case of CCOc1nc(NCCN2CCOCC2)nc(NC(C)C)n1, the survival is reported as inactive: 103%. With COc1ccc(N2CCN(C(CNC(=O)c3ccc(C)cc3)c3ccc4c(c3)OCO4)CC2)cc1 (stereo not given) the survival was inactive: 80%. In the case of Cc1ccc(NC(=O)Cn2cc(S(=O)(=O)N3CCN(c4ccccc4F)CC3)c3ccccc3c2=O)cc1F, the survival is reported as inactive: 87%. Cc1csc2nc(COc3ccc(NC(=O)COc4ccc(F)cc4)cc3)cc(=O)n12 was tested, and the survival was inactive: 84%. CCOc1ccc(/C=C/c2nc(C#N)c(N(C)C)o2)cc1 was tested, and the survival was inactive: 116%. With CCOc1ccccc1CNC(=O)c1nn(C)c2c1CS(=O)(=O)c1ccccc1-2 the survival was inactive: 103%. In the case of CC(C)c1ccc(CNc2nc(-c3ccco3)nn2S(=O)(=O)c2ccccc2)cc1, the survival is reported as inactive: 88%. In the case of Oc1ccc(-c2csc(-c3ccccc3)n2)cc1O, the survival is reported as inactive: 94%. For Cc1cc2c(cc1NC(=O)c1ccc(C(C)(C)C)cc1)n(C)c(=O)c(=O)n2C, the survival was inactive: 56%. In the case of O=C1CC(c2ccccc2)NC(=S)N1 (stereo not given), the survival is reported as inactive: 110%. For COc1ccc(NC(=O)c2sc3nc[nH]c(=O)c3c2C)cc1, the survival was inactive: 84%. For Cc1ccc(-c2cc(C(=O)Oc3ccccc3)c3cccc(C)c3n2)cc1, the survival was active: 13%. With Cc1sc(-c2cc3ccccc3oc2=O)nc1-c1ccc(Cl)cc1 the survival was inactive: 74%. With COC(=O)c1cc(S(=O)(=O)N2CCN(c3ccc(C)cc3C)CC2)cn1C the survival was inactive: 65%. With CC(C)Oc1ccc(CNC(=O)C2COc3ccccc3C2)cc1 (stereo not given) the survival was inactive: 49%. In the case of CSc1ccc(NC(=O)C2CC(O)CN2C(=O)Nc2ccccc2)cc1 (stereo not given), the survival is reported as inactive: 113%. With O=C(CN1C(=O)COc2ccc(S(=O)(=O)N3CCCC3)cc21)N1CCN(c2ccccc2F)CC1 the survival was inactive: 77%. With Cc1ccccc1-c1nc(CS(=O)CC(=O)NCCc2ccc(Cl)cc2)c(C)o1 (stereo not given) the survival was inactive: 128%. In the case of O=C1CC(c2ccccc2)Cc2[nH]c(=O)c(-c3nc(-c4ccc(F)cc4)cs3)cc21 (stereo not given), the survival is reported as inactive: 135%. With CCCCCCOc1ccc(-c2nc3ccc(Br)cc3c(=O)o2)cc1 the survival was inactive: 71%. COC(=O)c1ccccc1NC(=O)Nc1cccc(OCc2cc(=O)n3cccc(C)c3n2)c1 was tested, and the survival was inactive: 159%. With CS(=O)(=O)N1CCN(CC(=O)NC2CCCCC2)CC1 the survival was inactive: 108%. For CCOC(=O)c1cnc2ccc(OCC)cc2c1N1CCN(c2cccc(Cl)c2)CC1, the survival was active: -9%. In the case of O=C1CN(C(=O)C2CCCCC2)C(c2ccccc2)c2cc(F)ccc2N1 (stereo not given), the survival is reported as inactive: 73%. For CCOc1ccc(C2c3c(oc4ccc(C)cc4c3=O)C(=O)N2c2nc(C)c(C)s2)cc1OC (stereo not given), the survival was inactive: 142%. COc1ccc(-c2noc(-c3ccc(N4CCCCC4)c([N+](=O)[O-])c3)n2)cc1 was tested, and the survival was inactive: 75%. For COc1cccc(C2=NS(=O)(=O)N(C)C(C(=O)Nc3cccc(O)c3)=C2)c1, the survival was inactive: 85%. In the case of CCn1cc(C(=O)NCCCN(CC(C)C)CC(C)C)c(=O)c2cc(S(=O)(=O)N3CCc4ccccc4C3)ccc21, the survival is reported as inactive: 80%. With Cc1ccc(-c2nnc(SCC(=O)NCCC(C)C)nc2-c2ccc(C)cc2)cc1 the survival was inactive: 126%. Cc1ccc(CCNC(=O)CN2C(=O)COc3ccc(S(=O)(=O)N4CCC(C)CC4)cc32)cc1 was tested, and the survival was inactive: 91%. With CCN1CCN(C(c2cccc(Cl)c2)c2c(O)cc(C)n(CCOC)c2=O)CC1 (stereo not given) the survival was inactive: 66%. For Cc1cc(OCC(=O)NCC2(N(C)C)CCCCC2)cc(C)c1Cl, the survival was inactive: 88%. For COc1ccc(CC(=O)Nc2ccc(-c3nc4ccccc4s3)cc2Cl)cc1, the survival was inactive: 88%. Cc1cc(NC(=O)C2CCCN(S(=O)(=O)c3ccc(Br)s3)C2)ccc1Br (stereo not given) was tested, and the survival was inactive: 54%. For COc1ccc(N2CCN(C(CNC(=O)C(=O)NCc3ccc(F)cc3)c3cccnc3)CC2)cc1 (stereo not given), the survival was inactive: 90%.
